{"source": "paper PMC11245519", "about": "“Ubiquitous purine sensor modulates diverse signal transduction pathways in bacteria” (Nature Communications, 2024)", "assay_type_in_all_cases": "binding", "key": {"[1]": {"target": "McpH-LBD Y121A (Pseudomonas putida, UniProt Q88R14, Y121A)", "sequence (Q88R14 51-276 Y121A)": "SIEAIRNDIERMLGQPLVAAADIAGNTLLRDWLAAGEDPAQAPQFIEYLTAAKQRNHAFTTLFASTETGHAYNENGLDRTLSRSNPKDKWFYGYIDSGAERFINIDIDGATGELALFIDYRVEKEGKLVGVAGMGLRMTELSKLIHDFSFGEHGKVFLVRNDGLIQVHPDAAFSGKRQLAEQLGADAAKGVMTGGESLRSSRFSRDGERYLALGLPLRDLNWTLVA"}, "[2]": {"target": "McpH-LBD W140A (Pseudomonas putida, UniProt Q88R14, W140A)", "sequence (Q88R14 51-276 W140A)": "as the sequence (Q88R14 51-276 Y121A) above, with A71Y, W90A counted along it"}, "[3]": {"target": "McpH-LBD D169N (Pseudomonas putida, UniProt Q88R14, D169N)", "sequence (Q88R14 51-276 D169N)": "as the sequence (Q88R14 51-276 Y121A) above, with A71Y, D119N counted along it"}, "[4]": {"target": "McpH-LBD F167A (Pseudomonas putida, UniProt Q88R14, F167A)", "sequence (Q88R14 51-276 F167A)": "as the sequence (Q88R14 51-276 Y121A) above, with A71Y, F117A counted along it"}, "[5]": {"target": "McpH-LBD R129A (Pseudomonas putida, UniProt Q88R14, R129A)", "sequence (Q88R14 51-276 R129A)": "as the sequence (Q88R14 51-276 Y121A) above, with A71Y, R79A counted along it"}}}
{"smiles": "Nc1ncnc2[nH]cnc12", "note": "[Adenine]", "values": [{"measurement": "Fold reduction to wild-type protein", "setting": "[1]", "value": 58, "unit": "fold"}, {"measurement": "Fold reduction to wild-type protein", "setting": "[2]", "value": 65, "unit": "fold"}, {"measurement": "Fold reduction to wild-type protein", "setting": "[3]", "value": 80, "unit": "fold"}, {"measurement": "Fold reduction to wild-type protein", "setting": "[4]", "value": 47, "unit": "fold"}, {"measurement": "Fold reduction to wild-type protein", "setting": "[5]", "value": 16, "unit": "fold"}]}
